According to PubChem BioAssay AID1508623 (National Center for Advancing Translational Sciences (NCATS), 2021):
About 450 (0.94%) of roughly 48,000 compounds were called active. Inconclusive results (about 19%) are left out. The call rests on the fitted dose curve; in most records, active means well fitted inhibition curve with a large enough effect; inconclusive means small, poorly fitted or top-dose-only effect; inactive means no such curve, though single readings can be large or run the other way. The list shows a part of the results.

Assay: Primary qHTS for Identification of Small Molecule Inhibitors of Huntingtin Promoter Activity; further: nearly all actives have a fitted effect of over 50% in size
Conditions: HEK293 HTT promoter firefly luciferase reporter (activity 0% = vehicle and -100% = no light), 24 h; series mostly up to 57.5 µM; activity change, negative = inhibition: at the top concentration
Method in brief: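 Luminescence was read after Dual-Glo reagent and a 10 min room-temperature incubation. Values were normalized to vehicle (0% activity) and zero RLU (-100% activity). Reporter HEK293 cells had been exposed to compounds (up to 57.5 uM final) for 24 h.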

Activity change, negative = inhibition, inactive:
COc1ccc(-c2c3c(=O)n(C)c(=O)n(C)c3c3c(C)nc4ccccc4n23)cc1 -13.8%, CCOC(=O)Cn1c(=O)n(-c2ccccc2OC)c2nc(-c3cccc(F)c3)nc(C(N)=O)c21 -7.37%, Cc1ccc(-c2nnc(SCc3cccc(C#N)c3)o2)cc1 16.1%, CCOC(=O)c1ccccc1NC(=O)N(C(C)C)C1CCN(C(C)=O)CC1 -14.5%, CCOC(=O)c1cccnc1SCC(=O)Nc1ccc(C)cc1C -19.5%, Cc1ccc2c(c1)-c1c(cnc3cc(-c4ccccc4)nn13)CO2 7.21%, O=C(NCCc1ccccc1)c1nnc(Cc2cccc(F)c2)o1 -24.7%, CN(C)CCNC(=O)c1ccc2c(=O)n3c(nc2c1)CCCCC3 -1.29%, O=C(CCS(=O)(=O)c1cccs1)Nc1ccc(C(=O)Nc2ccccc2F)cc1 23%, Cc1ccc(C)c(Cn2cc(S(=O)(=O)c3ccc(Cl)cc3)c(=O)c3cc(F)ccc32)c1 -9.33%, CCc1ccc(NC(=O)c2ccc3[nH]c(C)c(C)c3c2)cc1 35.1%, CCN(Cc1ccccc1)C(=O)CN(c1ccc(OC)cc1)S(=O)(=O)c1c(C)nn(C)c1C -13.7%, CCOc1ccc(NC(=O)Cn2c(=O)n(-c3cccc(OC)c3)c(=O)c3c4c(sc32)CCCC4)cc1 0%, CCCCN(CCCC)CCNC(=O)c1cn(CC)c2ccc(S(=O)(=O)N(C)C3CCCCC3)cc2c1=O -1.71%, COC(=O)N[C@H](C(=O)N1CCC[C@@H]1c1ncc(-c2ccc(-c3ccc(-c4cnc([C@@H]5CCCN5C(=O)[C@@H](NC(=O)OC)C(C)C)[nH]4)cc3)cc2)[nH]1)C(C)C -14.5%, CCOC(=O)C1CCN(C(=O)Cn2c(=O)oc3cc(S(=O)(=O)N4CCC(C)CC4)ccc32)CC1 -15%, Cc1ccccc1NC(=O)CSc1nc2c(c(=O)n(C)c(=O)n2C)n1Cc1ccccc1F 9.57%, COCCNC(=O)Cn1c(=O)n(CCCCCC(=O)NCc2ccc3c(c2)OCO3)c(=O)c2sccc21 -8.14%, COc1ccc(-c2nc(CSc3nncn4c3cc3sccc34)c(C)o2)cc1OC 5.24%, O=C(CN1C(=O)CCc2cc(S(=O)(=O)N3CCOCC3)ccc21)NCc1ccccc1 -24.4%, CCNc1nc(OC)nc(Oc2ccc(=O)[nH]n2)n1 -2.29%, CN1[C@@H]2CC[C@H]1CC(OC(=O)C(O)c1ccccc1)C2 (some centres undefined) 4.43%, CCCNC(=O)c1ccc2nc(CCc3ccccc3)oc2c1 9.95%, Cc1cc(C)cc(S(=O)(=O)c2cn(C)c3cc(N4CCCC4)c(F)cc3c2=O)c1 -11.4%, CCc1ccc(NC(=O)CSC2=Nc3ccccc3C3=NC(CCC(=O)NCc4ccco4)C(=O)N23)cc1 (centres undefined) -17.9%, COc1ccc(C(=O)n2nc(-c3ccco3)nc2NCc2cccs2)cc1OC 19.6%, CCc1ccccc1NC(=O)N(C)CCc1c(C)nn(C)c1C -3.2%, Cc1ccc(-c2nc3sc(CCNC(=O)c4ccc(C)c(C)c4)c(C)n3n2)cc1 9.51%, CC(=O)c1cccc(NC(=O)c2cc(-c3ccc(Cl)s3)nc3ccccc23)c1 -14.5%, COc1ccc(NC(=O)CC2C(=O)N(c3cccc(C)c3)C(=O)N2C2CCCCC2)cc1 (centres undefined) -28.6%, CCC(C)(Oc1ccc(C2(c3ccc(OC(C)(CC)C(=O)O)cc3)CCCCC2)cc1)C(=O)O (centres undefined) 12.7%, CC(C)c1ccc(S(=O)(=O)c2nnn3c2nc(N2CCCCC2)c2sccc23)cc1 8.42%, Cc1ccc(C)c(Cn2c(-c3cccs3)nc3ccccc32)c1 -27.8%, Cc1ccc(C)c(CN2C(=O)N(c3cc(Cl)ccc3C)S(=O)(=O)c3ccccc32)c1 -16%, CC(C)Cc1ccc(S(=O)(=O)Nc2cc3c(cc2N2CCOCC2)n(C)c(=O)c(=O)n3C)cc1 -1.6%, CCOc1ccccc1CNS(=O)(=O)c1ccc2[nH]c(=O)ccc2c1 -21.9%, CN(Cc1ccccc1)S(=O)(=O)c1cc(Br)cc2c1N(C(=O)C1CC1)CC2 -31.8%, COc1ccc(NC(=O)CSc2nnc(NC(=O)Nc3ccc(OC)cc3)s2)cc1 38.6%, CCCCN(C)CCCNC(=O)c1cc(-c2ccc(Br)s2)nc2ccccc12 -26.2%, Cc1cccc(NC(=O)CCCCCn2c(=O)[nH]c3ccsc3c2=O)c1 -11.9%, CCOc1ccc(CCNC(=O)CCCn2nc(C)c3sc4ccccc4c3c2=O)cc1 5.04%, Cc1cccc(N2CCN(C(=O)c3cn(CC(C)C)c(=O)c4c3c3ccccc3n4C)CC2)c1C -16.2%, Cc1ccc(NS(=O)(=O)c2c(C)[nH]c(=O)[nH]c2=O)c(C)c1 -4.71%, COc1cccc(N2CC(NC(=O)CCCc3ccccc3)CC2=O)c1 (centres undefined) -14%, Cc1ccc(-c2noc(CNC(=O)c3ccc(Br)o3)n2)cc1 -9.92%, CCOc1ccccc1CNC(=O)C1CCN(c2nn3cc(-c4ccc(F)cc4)nc3s2)CC1 16.9%, CCCCCCOc1ccc(C2C(=O)N(C3CCCCC3)CC(=O)N2CCC)cc1 (centres undefined) -28.6%, Cc1ccc(C(=O)Nc2cc3nn(-c4ccccc4)nc3cc2Cl)c(C)c1 0.317%, N#C/C(=C\c1ccc(Cl)cc1Cl)c1nc(-c2cccc(Cl)c2)cs1 5.95%, CCOc1ccccc1N(CC(=O)NCCSc1ccccc1)S(=O)(=O)c1ccccc1 -18.4%, COc1ccccc1Cc1nc2ccccc2nc1SCC(=O)N(C)c1ccc(F)cc1 -4.02%, Cc1cccc(N2CCN(C(=O)Nc3cn(CC(C)C)c(=O)c4ccccc34)CC2)c1C -22.8%, CCc1nn(CC(=O)NCCCN(CC(C)C)CC(C)C)c(=O)c2cc3sc(C)cc3n12 -0.605%, COc1ccccc1N1CCN(C(=O)Cn2cnc3onc(-c4ccc(F)cc4)c3c2=O)CC1 -18.6%, COc1ccc(Cn2c(=O)c3oc4ccccc4c3n(Cc3cccc(C(F)(F)F)c3)c2=O)cc1 -19.5%, Cc1nn(-c2ccccc2)c2c1N(CC(=O)N1CCN(c3cccc(Cl)c3)CC1)C(=O)CS2 -20.2%, COc1cccc(N2CC(NC(=O)c3ccco3)CC2=O)c1 (centres undefined) -17.5%, CCOC(=O)c1ccccc1NC(=O)CSc1nc2cn(CC)nc2c(=O)n1Cc1ccc(Cl)cc1 -6.81%, Cc1ccc2c(c1)c1c(c(=O)n(-c3cccc(Cl)c3)c(=O)n1CC(=O)Nc1c(C)cccc1C)n2C 5.76%, Cc1ccc(CN2CCSc3ccc(C(=O)N4CCN(c5ccccc5)CC4)cc32)cc1 -10.3%, O=C(CC1N=C2c3ccccc3N=C(SCc3ccc(Cl)cc3)N2C1=O)NCc1cccs1 (centres undefined) -5.87%, COc1ccc(N2CCN(C(=O)C3CCN(S(=O)(=O)c4cccs4)CC3)CC2)cc1 -22.2%, CC(=O)O[C@]1(C(C)=O)CC[C@H]2[C@@H]3C=C(C)C4=CC(=O)CC[C@]4(C)[C@@H]3CC[C@@]21C -1.72%, O=c1c2cc3c(cc2n(Cc2ccc(Cl)cc2)c(=O)n1Cc1nc(-c2ccccc2)no1)OCO3 -6.56%, Cc1ccc(-n2c(Cc3ccccc3)nnc2SCc2nc(-c3cccs3)no2)cc1 -26%, Cc1ccc(O)c(C(CCN(C(C)C)C(C)C)c2ccccc2)c1 (centres undefined) -0.423%, Cc1ccc(-c2noc(C(C)NS(=O)(=O)c3ccc(C)cc3)n2)cc1 (centres undefined) -29.7%, COc1ccc(CNC(=O)Cc2c(C)c3cc4c(C)coc4c(C)c3oc2=O)cc1 -10.1%, Cc1ccc(C)c(CN2CCCN(Cc3ccc(F)cc3)S2(=O)=O)c1 -14.4%, Cc1nc(-n2nc(C)c(Cc3ccccc3Cl)c2C)sc1C(=O)Nc1ccccc1F -6.93%, CCOC(=O)Cn1c(=O)n(CC2CCCO2)c2nc(-c3ccc(C)cc3)nc(C(N)=O)c21 (centres undefined) -12.2%, CC(=O)c1ccc(S(=O)(=O)N2CCn3cccc3C2c2ccc(C)cc2)cc1 (centres undefined) -20.4%, Cc1ccc2nc3c(cc(C(=O)NCC4CCCO4)c(=N)n3C(C)C)c(=O)n2c1 (centres undefined) -19.3%, COc1ccccc1NC(=O)C(=O)NCC(c1ccc2c(c1)OCO2)N1CCOCC1 (centres undefined) -6.11%, COc1ccccc1/C=C/c1nc2ccccc2n1C(C)C 12.4%, COc1ccc(Cl)cc1NC(=O)Cc1ccc(NC(=O)N2CCCCc3ccccc32)cc1 -20.9%, CN1C(=O)CC[C@H]1c1cccnc1 6.35%, CCn1c(C)c(C2N3CC4(C)CN2CC(C)(C3)C4=O)c2ccccc21 (centres undefined) -6.95%, C/C(=N\O)[C@@H](C)NCC(C)(C)CN[C@H](C)/C(C)=N/O -6.15%, CSc1ccc(CCNC(=O)c2cnc3c(C)cccn3c2=O)cc1 5.15%, CC(=O)c1cccc(-n2c(=O)c3c4c(sc3n(CC(=O)c3ccccc3)c2=O)CN(C(C)=O)CC4)c1 -2.15%, CC(=O)c1cc2c(cc1N/C(=N/S(=O)(=O)c1ccc(Cl)cc1)c1ccc(F)cc1)OCO2 -15.1%, CCc1ccccc1NC(=O)Nc1c[nH]c(=O)[nH]c1=O 8.85%, Cc1ccc(C)c(N2CCN(C(=O)c3ccc(NC(=O)c4nsc5ccccc45)cc3)CC2)c1 -24.5%, COc1cc(C(=O)Oc2c(Sc3ccccc3)c(C)nn2-c2ccccc2)cc(OC)c1OC -25.5%, Cc1ccc(/C=C/c2onc(C)c2S(=O)(=O)N2CCC(C(=O)Nc3ccc(C)c(N(C)C)c3)CC2)cc1 -21.1%, Cc1nn(-c2ccccc2)c(OC(=O)C(C)C)c1Sc1ccc(Cl)cc1 -22.7%, Cc1ccc(CNC(=O)CCCCCn2c(=O)[nH]c3ccccc3c2=O)cc1 -0.692%, CC1CCCN(CCCNC(=O)c2ccc3c(c2)N(Cc2ccccc2F)C(=O)c2ccccc2S3(=O)=O)C1 (centres undefined) -14.7%, Cc1ccccc1-c1nc(CN2CCC(C(=O)NCc3ccccc3Cl)CC2)c(C)o1 5.95%, CCOc1ccc(N2CC(NC(=O)CCc3ccccc3)CC2=O)cc1 (centres undefined) 5.28%, Cc1cc(C)c(NC(=O)Cn2c(=O)n(CC(=O)NCc3ccccc3Cl)c(=O)c3sccc32)c(C)c1 1.7%, COC(=O)c1ccc(NC(=O)CCS(=O)(=O)c2ccc(Br)cc2)cc1 -19.3%, CC(=O)c1cc2c(cc1N/C(=N/S(=O)(=O)c1ccc(C)cc1)c1ccccc1)OCO2 -22.4%
